In patent US11898187B2 (priority 2017, dated 2024):

Columns and labels:
Type in all cases: biochemical
Details in all cases: 4-mer peptides, fraction modified (0-1)
[1] = system: N-glycosyltransferase from Haemophilus influenza
[2] = system: N-glycosyltransferase from Mannheimia haemolytica
[3] = system: N-glycosyltransferase from Haemophilus dureyi
[4] = system: N-glycosyltransferase from Escherichia coli

| Substance | MO[…] [1] | MO[…] [2] | MO[…] [3] | MO[…] [4] |
| --- | --- | --- | --- | --- |
| PNIS | 0.3922 | 0.5307 | 0.4261 | 0.6688 |
| SNVS | 0.1263 | 0.7537 | 0.3342 | 0.5194 |
| TNIT | 0.04805 | 0.461 | 0.198 | 0.2587 |
| VNAT | 0.1173 | 0.6726 | 0.3047 | 0.1646 |
| PNIT | 0.8725 | 0.8687 | 0.8196 | 0.6028 |
| PNFT | 0.4645 | 0.8586 | 0.5144 | 0.5073 |
| PNMT | 0.719 | 0.8798 | 0.6581 | 0.4526 |
| ANIS | 0.2079 | 0.5077 | 0.2419 | 0.4917 |
| ANVT | 0.5896 | 0.9587 | 0.9007 | 0.351 |
| GNVT | 0.05877 | 0.8433 | 0.3804 | 0.2697 |
| SNIT | 0.07936 | 0.7534 | 0.4091 | 0.2341 |
| PNRT | 0.4212 | 0.8381 | 0.4726 | 0.2163 |
| SNVT | 0.3833 | 0.9307 | 0.7806 | 0.2133 |
| PNLT | 0.591 | 0.8239 | 0.5339 | 0.3175 |
| PNVT | 0.7954 | 0.92 | 0.8885 | 0.4415 |
| VNMT | 0.3733 | 0.644 | 0.2046 | 0.3718 |
| LNAT | 0.06063 | 0.4721 | 0.09237 | 0.1873 |
| PNVS | 0.4427 | 0.6243 | 0.4575 | 0.5449 |
